Reference: ChEMBL document CHEMBL4888484, “Replenishing the malaria drug discovery pipeline: Screening and hit evaluation of the MMV Hit Generation Library 1 (HGL1) against asexual blood stage Plasmodium falciparum ,using a nano luciferase reporter read-out” (2022)
Among all 150,000 compounds or so, about 540 (0.36%) showed an effect of 50% or more. Some of the results follow.

The compounds below were run on Plasmodium falciparum (assay: Primary screen in NF54 nanoGlo assay, in single point, at 2uM, 72h; a lower Z score goes with more inhibition). Conditions: timepoint 72 hour.
Assay type: functional, Erythrocyte

Compound | % Inhibition [%] | Z score
O=c1cc(COc2ccc3c(c2)CCC3)nc2ccccn12 | -17 | 2.28
Cc1c(C(=O)O)sc2ncnc(N3CCC[C@@]4(C3)OCc3ccccc34)c12 | -29 | 3.07
CCc1ccc(CN2CCC(CNC(=O)c3occc3C)CC2)nc1 | -20 | 2.72
C[C@H](NC(=O)C1=NN(C)C(=O)CC1)c1ccc2c(c1)OCCO2 | -13 | 1.49
CC[C@H]1CCCN(c2nc(OC)cc(OC)n2)CC1 | -11 | 2.36
O=C(Nc1nc(-c2ccc3c(c2)CCCC3)cs1)c1cnns1 | -39 | 4.6
Cc1ccc(NC(=O)CC2CCN(C)CC2)cc1 | -13 | 1.82
CS(=O)(=O)N1CCC(C(=O)NC(c2ccccc2)c2ccccc2)CC1 | -9 | 1.63
CN1C[C@H](O)C[C@H]1c1nnc2n1CCN(S(=O)(=O)c1ccc(F)cc1)CC2 | -5 | 0.56
N#Cc1csc(C(=O)Nc2cnccc2-c2cccc(F)c2)c1 | 3 | -0.47
Cc1nn(C)c(C)c1NC(=O)NCc1csc(N2CCOCC2)n1 | -16 | 1.64
COC(=O)CCN(CC(=O)N[C@@H](C)c1ccc(C)c(C)c1)CC(C)C | -16 | 2.01
Cc1ccc(C(=O)NCc2cccnc2Oc2ccc(F)cc2F)cn1 | -14 | 2.01
Cc1ccccc1S(=O)(=O)N1C(=O)c2ccccc2N(S(=O)(=O)c2ccccc2C)C(=O)c2ccccc21 | -12 | 2
O=C(CCc1nc(CS(=O)(=O)c2ccc(Cl)cc2)no1)Nc1cccc2c1CCCC2 | 7 | -1.25
CCN(CC)c1ccc(CNC(=O)[C@H]2CCS(=O)(=O)C2)cc1F | -4 | 0.54
COc1cccc(OC2CN(Cc3c(C)nn(CCO)c3C)C2)c1 | -14 | 2.34
Cc1ccc(-n2nc3c(N4CCN(C(=O)Nc5cc(C)ccc5C)CC4)nnc(C)c3c2C)cc1 | 9 | -1.02
COCC1CN(C(=O)NC2C3CCc4ccccc4C32)CC(C)O1 (centres undefined) | -14 | 1.91
C[C@]1(c2cnccn2)NC(=O)N(Cc2cc(F)ccc2OC(F)F)C1=O | -4 | 0.57
COCCCn1cnc2c(-c3ccccc3)cn(CC(=O)Nc3ccc(C)c(F)c3)c2c1=O | -8 | 1.17
CCn1cc(CC(=O)NCCN2CCOCC2)c2cccnc21 | -10 | 1.21
Cc1cc(C(=O)N[C@@H](C)CN2CCc3ccccc3C2)cc2sc(N)nc12 | 4 | -0.73
C[C@H]1C[C@@H](CO)CCN1C(=O)OC(C)(C)C | -12 | 1.26
Cc1nc(-c2nccn2CCc2nc(-c3cccnc3)n[nH]2)co1 | -16 | 1.48
c1ccc(C2NC3c4ccccc4OCC3C2c2ccccc2)cc1 (centres undefined) | -14 | 1.6

Compound | % Inhibition [%] | Z score
Cc1ccc(CN2CCC[C@H]2c2nccs2)s1 | -10 | 1.38
CC1(C)[C@H](C(=O)Nc2ccccc2N)CC[C@]1(C)C(=O)O | 0 | 0.05
Cc1ccc(S(=O)(=O)N2CCN(C(=O)c3ccc4c(c3)nc(C)n4-c3ccccc3)CC2)cc1 | -4 | 0.43
Cc1ccsc1C(=O)Nc1scnc1-c1ccc(F)cc1 | 0 | 0.01
CN1CCN(CCOc2ccc(-c3cnc4cncn4c3)cc2)CC1 | -7 | 0.64
CC(C)CNC(=O)C[C@H](c1ccc(C(F)(F)F)cc1)c1cn(Cc2ccccc2)c2ccccc12 | -6 | 0.77
Cc1ccc(S(=O)(=O)c2c(N)n(-c3ccc4c(c3)OCCO4)c3nc4ccccc4nc23)cc1 | 6 | -0.5
Cc1ccc(NC(=O)C2CCCN(S(=O)(=O)c3ccc4c(c3)NC(=O)C(C)O4)C2)c(C)c1 (centres undefined) | -9 | 1.35
CCOc1ccc(N(C)S(=O)(=O)c2ccc(-c3cc(C(F)(F)F)n[nH]3)s2)cc1 | -2 | 0.3
N#CCCC1(CCC#N)S(=O)(=O)CC(c2ccc(Cl)cc2)CS1(=O)=O | -3 | 0.58
CC(NS(=O)(=O)N1CC2CCC1C2)C(O)Cc1ccccc1 (centres undefined) | -6 | 0.99
COc1ccccc1N1CCN(C(=O)c2ccc(Cn3cncn3)cc2)CC1 | -3 | 0.33
Cc1nnc(NC(=O)N2CCN(Cc3ccncc3)CC2)s1 | 10 | -1.44
CN1CCC(NC(=O)c2n[nH]c3c2CN(C(=O)c2cccc(F)c2)CC3)CC1 | -12 | 2.18
CCN(C)c1ccccc1NCc1nc(C)cs1 | 4 | -0.41
Cc1nc2cc(-c3ccc(Br)cc3)nn2c(N)c1-c1ccccc1 | 2 | -0.3
O=S(=O)(Nc1ccc2cc[nH]c2c1)c1cccc(Cl)c1 | 0 | 0.02
O=C(c1cn2ccnc(-c3ccc(F)cc3)c2n1)N1CCCCCC1 | -11 | 1.6
CO[C@H]1C[C@@H](Cn2ccc(NC(=O)OC(C)(C)C)n2)N(Cc2c[nH]nc2C)C1 | 8 | -1.2
COc1cccc(N2CCN(c3ccnc(N4CCN(c5cccc(OC)c5)CC4)n3)CC2)c1 | 14 | -1.67
CCCc1nnc(NC(=O)N[C@@H](C)Cc2c(C)noc2C)s1 | -17 | 1.54
N#Cc1nc(C(c2ccccc2)c2ccccc2)oc1NCCCn1ccnc1 | 7 | -0.96
Cc1cc(Cl)cc(CN[C@H]2CCOC3(CC(C(=O)O)C3)C2)c1 (some centres undefined) | 19 | -2.46
CCOCCCC(=O)Nc1c(F)cccc1NC(=O)OC(C)(C)C | -4 | 0.48
Cc1cc(C)n(CCC(=O)N2CCC(n3c(C)cnc3C3CCC3)CC2)n1 | -13 | 1.72
CN(CCc1ccccc1)c1cc([C@H]2C[C@H](N)C2)nc(C2CC2)n1 | 5 | -0.87
